The structures appear in SMILES notation. Out of some 150,000 compounds screened, about 540 (0.36%) showed an effect of 50% or more. The list shows a part of the results.

For this assay, the system named is Plasmodium falciparum. As to the kind of experiment: Primary screen in NF54 nanoGlo assay, in single point, at 2uM, 72h; a lower Z score goes with more inhibition. Particulars: timepoint 72 hour. In kind it is functional, Erythrocyte.
`Cc1noc(C2CCCN(C(=O)C(C(C)C)n3cncn3)C2)n1` (centres undefined): the % Inhibition (as a rule, the relative decrease from the control value, in per cent) is 6% and the Z score is -1.23.
Regarding `CC1CCCCC1N(C)C(=O)c1ccc(=O)n(C)n1` (centres undefined), the “% Inhibition” value is -11% and the Z score was found to be 1.43.
With `CC[N+](CC)(CC)C1[N-]c2ccc(C)cc2C(c2ccccc2)(C(F)(F)F)N1` (centres undefined), the “% Inhibition” value was -10% and the Z score is 1.83.
As for `CCn1c(CN2CCCC2)nc2cc(S(=O)(=O)N3CCCCC3)ccc21`, the “% Inhibition” value is -46% and the Z score stood at 5.44.
Take `O=C(Cc1scnc1-c1cccs1)NCc1ccc(F)cc1`: the “% Inhibition” value is given as -1% and the Z score is 0.07.
On the same counts, the results for `O=c1c2cc(F)ccc2c(Br)cn1CC1(CO)COC1` are 20% and -2.48.
In the case of `Cc1ccc(C(=O)N2CCC[C@@H]2COc2ccc(C(=O)N3CCOCC3)cc2)cc1F`, the “% Inhibition” value is listed as -36% and the Z score came out at 6.88.
On the same counts, the results for `Cc1csc(CNc2ccc(F)cc2OCC(F)F)n1` are -11% and 1.79.
Take `CS(=O)(=O)Nc1ccc2c(c1)C(=O)Nc1ccccc1O2`: the “% Inhibition” value is on record as -12% and the Z score was 1.39.
As for `O=C(C1CCCC1)N1Cc2cccnc2C1`, the “% Inhibition” value was -7% and the Z score is 1.21.
As to `COC(=O)[C@](NC(=O)C(F)(F)F)(c1cccn1C)C(F)(F)F`, the “% Inhibition” value was -6% and the Z score came to 0.92.
The like results for `CCn1nccc1CNc1nc(C)nn1C` were, in that order, -12% and 1.78.
For `N#CCN(C1CC1)S(=O)(=O)c1ccc2c(c1)CCO2`, the “% Inhibition” value was -16% and the Z score is recorded as 1.61.
Consider `C[C@H](Oc1ccccc1)C(=O)NC(C)(C)CC(C)(C)C`, for which the “% Inhibition” value is given as -12% and the Z score worked out at 2.32.
Consider `CCOc1cccc2nnc(NC(=O)CCC(=O)N3CCCCCC3)n12`, for which the “% Inhibition” value was -13% and the Z score came out at 1.46.
As to `CS(=O)(=O)NC1CCCCC1CNC(=O)[C@H]1C[C@@H]1C1CC1` (some centres undefined), the “% Inhibition” value is on record as 4% and the Z score is -0.63.
Regarding `Cc1nc(C(=O)N(Cc2cccnc2)C2CCN(C)CC2)c(C)s1`, the “% Inhibition” value is recorded as -24% and the Z score was determined as 2.37.
The like results for `COCC1(S(=O)(=O)N[C@@H](C(=O)OC)c2cc(C)cc(C)c2)CC1` were, in that order, -6% and 0.69.
Turning to `O=C(NC[C@H](O)C1CCC1)C1(O)CCCCC1`, the “% Inhibition” value was -10% and the Z score is 1.91.
As to `O=C(NC1CCCCCCC1)c1ccc(CN2C(=O)CCn3nc(-c4ccccc4)cc32)cc1`, the “% Inhibition” value was found to be 14% and the Z score is reported as -1.59.
For the molecule `CCOC(=O)[C@H]1CCCN(c2nc(-c3cccc(OC)c3)cc(C(F)(F)F)n2)C1`, the “% Inhibition” value turned out to be 32% and the Z score was -3.67.
`Cc1n[nH]cc1CN(C)C(=O)c1cnc2cccc(C)n2c1=O`: the “% Inhibition” value is reported as -14% and the Z score came out at 2.08.
Regarding `CC(=O)N1CCc2c(sc(NC(=O)c3ccc4c(c3)OCCO4)c2-c2nc3ccccc3s2)C1`, the “% Inhibition” value is reported as -5% and the Z score is recorded as 0.9.
`Cc1cc(C(=O)N2CCn3nc(C(=O)N4CCCC4)cc3C2)[nH]n1`: the “% Inhibition” value was 5% and the Z score was -0.82.
With `CC(C)(CNC(=O)NCc1cc(F)cc(F)c1)C1(O)CCOCC1`, the “% Inhibition” value is -2% and the Z score is reported as 0.28.
For `CC(C)Cn1nccc1C(=O)N[C@H](CO)Cc1nccs1`, the “% Inhibition” value was -6% and the Z score amounted to 1.24.
Consider `CC1(CO)CCCC1NS(=O)(=O)N1CCCCCC1` (centres undefined), for which the “% Inhibition” value is -4% and the Z score turned out to be 0.38.
As to `CCCC(CCC)N(CC1CC2CCC(C1)N2C)C(=O)CNC(=O)CC(C)(C)C` (centres undefined), the “% Inhibition” value is 5% and the Z score was -0.6.
As to `CCC(=O)Nc1ccc(N2CCN(C(=O)C3CCCC3)CC2)c(C(=O)NCc2ccc(F)cc2)c1`, the “% Inhibition” value is -11% and the Z score stood at 1.8.
For the molecule `COc1cccc(N2C[C@H](C)N(C(=O)NCc3ccc(C)cc3)CC2=O)c1`, the “% Inhibition” value is 3% and the Z score is -0.35.
For the molecule `CC(C)=CCN1C(=O)[C@@H]2CC[C@H]1CN(C(=O)CCn1ccc(=O)[nH]c1=O)C2`, the “% Inhibition” value is on record as -10% and the Z score was 1.03.
The like results for `CN1CC(=O)N(C[C@]2(C)OCCc3ccccc32)C1=O` were, in that order, -7% and 0.74.
For `Cc1n[nH]cc1CN(C)C(=O)CCCc1cn[nH]c1`, the “% Inhibition” value is reported as -7% and the Z score is reported as 1.25.
For the molecule `O=C(NC[C@@H](CO)Cc1ccc(F)c(F)c1)c1cc(C2CC2)no1`, the “% Inhibition” value turned out to be 0% and the Z score is 0.03.
The like results for `O=C(Cn1cc(-c2ccc(F)cc2)cn1)N1CCN(c2ccccn2)CC1` were, in that order, -6% and 1.08.
Consider `COc1ccccc1-c1noc(C2CCN(c3oc(C)nc3C#N)CC2)n1`, for which the “% Inhibition” value was 21% and the Z score is given as -2.84.
The like results for `CC(=O)c1c(-c2ccc(C(=O)N(C)Cc3nc(C)cs3)cc2)cnn1C` were, in that order, 1% and -0.15.
The like results for `O=C(NCc1ccco1)N(CCN1CCCCC1)C1CCOCC1` were, in that order, 5% and -0.88.
On to `CC(C)Cn1cc(C(=O)NCCS(N)(=O)=O)cn1`, for which the “% Inhibition” value was -2% and the Z score is recorded as 0.38.
On to `C=CCC[C@H](O)CN(Cc1c(C(C)C)nn(-c2ccccc2)c1Oc1ccccc1F)CC1CC1`, for which the “% Inhibition” value is -7% and the Z score worked out at 1.09.
As to `CCN(Cc1cccs1)C(=O)c1cc(C)no1`, the “% Inhibition” value is listed as 1% and the Z score was -0.09.
With `C=CCCC(=O)NCCc1ccc(C)c(OC)c1`, the “% Inhibition” value is on record as 4% and the Z score is reported as -0.62.

Values taken from ChEMBL document CHEMBL4888484, “Replenishing the malaria drug discovery pipeline: Screening and hit evaluation of the MMV Hit Generation Library 1 (HGL1) against asexual blood stage Plasmodium falciparum ,using a nano luciferase reporter read-out” (2022).
